Laboratory results as given in patent US6818625B2, “Method for increasing survival rate of cells in animal cell culture under hypoxia condition” (priority 2000, dated 2004).

System: HepG2 cells
Test: Screening of antibiotics enhancing HepG2 cell viability under hypoxic condition
Type: cell-based, human
Conditions: HepG2, 1% (v/v) oxygen

| Molecule | enhancement effect on cell viability under hypoxic condition | effective concentration exerting enhancement effects on cell viability |
| --- | --- | --- |
| O=c1[nH]cc(F)c(=O)[nH]1 [5-fluorouracil] | did not show any effect | – |
| CC1(C)S[C@@H]2[C@H](NC(=O)[C@H](N)c3ccc(O)cc3)C(=O)N2[C@H]1C(=O)O [amoxillin] | did not show enhancement effect | – |
| CC1(C)S[C@@H]2[C@H](NC(=O)[C@H](N)c3ccccc3)C(=O)N2[C@H]1C(=O)O [ampicillin] | did not show enhancement effect | – |
| O=C(N[C@H](CO)[C@H](O)c1ccc([N+](=O)[O-])cc1)C(Cl)Cl [chloramphenicol] | effective | 1 to 10 µg/mL |
| O=C(O)c1cn(C2CC2)c2cc(N3CCNCC3)c(F)cc2c1=O [ciprofloxacin] | effective | 1 to 10 µg/mL |
| C[C@@H]1C[C@@H]([C@H](O)CC2CC(=O)NC(=O)C2)C(=O)[C@@H](C)C1 [cyclohexamide] | did not show any effect | – |
| C[C@H]1c2cccc(O)c2C(=O)C2=C(O)[C@]3(O)C(=O)C(C(N)=O)=C(O)[C@@H](N(C)C)[C@@H]3[C@@H](O)[C@@H]21 [doxycycline] | – | 0.1 to 10 µg/mL |
| CC[C@H]1OC(=O)[C@H](C)[C@@H](O[C@H]2C[C@@](C)(OC)[C@@H](O)[C@H](C)O2)[C@H](C)[C@@H](O[C@@H]2O[C@H](C)C[C@H](N(C)C)[C@H]2O)[C@](C)(O)C[C@@H](C)C(=O)[C@H](C)[C@@H](O)[C@]1(C)O [erythromycin] | not effective | – |
| CN(C)c1ccc(O)c2c1C[C@H]1C[C@H]3[C@H](N(C)C)C(O)=C(C(N)=O)C(=O)[C@@]3(O)C(O)=C1C2=O [minocycline] | – | 0.1 to 10 µg/mL |
| CC1COc2c(N3CCN(C)CC3)c(F)cc3c(=O)c(C(=O)O)cn1c23 (stereo not drawn) [ofloxacin] | – | 10 to 100 µg/mL |
| CN(C)[C@@H]1C(O)=C(C(N)=O)C(=O)[C@@]2(O)C(O)=C3C(=O)c4c(O)cccc4[C@@](C)(O)[C@H]3[C@H](O)[C@@H]12 [oxytetracycline] | – | 0.1 to 10 µg/mL |
| COc1ccc(C[C@H](N)C(=O)N[C@H]2[C@@H](O)[C@H](n3cnc4c(N(C)C)ncnc43)O[C@@H]2CO)cc1 [puromycin] | did not show any effect | – |
| Nc1ccc(S(=O)(=O)Nc2ncccn2)cc1 [sulfadiazine] | did not show any effect | – |
| CN(C)[C@@H]1C(O)=C(C(N)=O)C(=O)[C@@]2(O)C(O)=C3C(=O)c4c(O)cccc4[C@@](C)(O)[C@H]3C[C@@H]12 [tetracycline] | – | 0.1 to 10 µg/mL |
| COc1ccc(CN2CCNCC2)c(OC)c1OC [trimetazidine] | did nor show any positive result | – |
| gentamicin | effective | – |
| neomycin | effective | 1000 µg/mL |

Same assay, conditions: Homo sapiens; HepG2, 1% (v/v) oxygen; read-out: effective concentration exerting enhancement effects on cell viability

| Molecule | minimal effective concentration |
| --- | --- |
| CN(C)[C@@H]1C(O)=C(C(N)=O)C(=O)[C@@]2(O)C(O)=C3C(=O)c4c(O)cccc4[C@@](C)(O)[C@H]3C[C@@H]12 [tetracycline] | 0.1 to 10 µg/mL |
